Assay results published in PubChem BioAssay AID2675 (National Center for Advancing Translational Sciences (NCATS), 2010).
Among all 280,000 compounds or so, about 100 (0.036%) were called active. This list was built around the results that the source calls inconclusive (neither active nor inactive); the mix of calls is not that of the screen. The call rests on the fitted dose curve; in most records, active means well fitted inhibition curve with a large enough effect in the signal ratio, with a control signal flat (not every such curve was filed as active); inconclusive means small, poorly fitted or top-dose-only effect, or effect the other way, or a change in a side signal; inactive means no such curve, though single readings can be large or run the other way; the % refers to the signal ratio. A potency beside an inconclusive call is a rough fit, not a confirmed value. A note “side channel” means that the fit belongs to a control or component signal, not to the main read-out.

target: Muscleblind-like protein 1 (Homo sapiens) (UniProt Q9NR56); test: qHTS Assay for Inhibitors of MBNL1-poly(CUG) RNA binding; conditions: TR-FRET MBNL1-His/biotin-(CUG)12 binding, 665/545 ratio; activity change, negative = inhibition: at 57.5 µM (top of the series)
Procedure, shortened: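 His-tagged MBNL1 binding to biotinylated (CUG)12 RNA was measured by TR-FRET using terbium anti-His antibody (0.055 ng/ul final) and streptavidin-XL665 (5 nM final). Compounds were titrated 92 nM to 58 uM; 60 min at room temperature.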
On the % scale 0 is the no-effect control and ±100 the full control effect; potency means the concentration at half of the fitted maximal effect; tags describe the fitted curve by direction and shape or compound fluorescence and quenching.

Chain of UniProt Q9NR56 (Q9NR56 whole entry, looked up): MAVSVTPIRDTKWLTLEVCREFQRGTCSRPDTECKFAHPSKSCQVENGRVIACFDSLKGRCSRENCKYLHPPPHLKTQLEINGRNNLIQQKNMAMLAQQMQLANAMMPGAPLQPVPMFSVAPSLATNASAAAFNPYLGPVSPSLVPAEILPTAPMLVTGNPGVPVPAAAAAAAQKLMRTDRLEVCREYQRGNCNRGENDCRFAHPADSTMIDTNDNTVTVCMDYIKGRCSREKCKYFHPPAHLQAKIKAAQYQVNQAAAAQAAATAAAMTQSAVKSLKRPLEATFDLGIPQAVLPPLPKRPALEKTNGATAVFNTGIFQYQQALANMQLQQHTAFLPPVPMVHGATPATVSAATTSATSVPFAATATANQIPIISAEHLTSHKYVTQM

Structure (SMILES)	Potency	activity change, negative = inhibition
Cc1cccn2c(=O)c3cc(C(=O)NCc4cccnc4)c(=N)n(CC4CCCO4)c3nc12 (stereo not given)	inconclusive: 5.01 µM [quencher, side channel, full curve]	
COc1cc(C(=O)ON=C2C(C)=CC(=O)C=C2C)cc(OC)c1OC	inconclusive: 11.2 µM [quencher, side channel, partial curve]	
O=C(/C=C\c1ccc(-c2ccccc2)o1)c1ccccc1	inconclusive: 12.6 µM [fluorescent, side channel, partial curve]	
O=C(CSc1nc2c(cnn2-c2ccc(F)cc2)c(=O)[nH]1)Nc1nccs1	inconclusive: 5.62 µM [inhibitor, full curve, poor fit]	
COc1ccc(C(=O)O/N=C(\C)c2ccccc2)cc1		inactive: -1.22%
c1ccc(COc2ccc(OCCCN3CCCC3)cc2)cc1		inactive: 1.39%
O=C1CCCC2=C1C1(O)C(=O)c3ccccc3C1(O)O2 (stereo not given)	inconclusive: 25.1 µM [quencher, side channel, partial curve]	
CCOc1ccc(CNC(=O)CCCC(=O)n2ncc3cc(C)ccc32)cc1	inconclusive: 0.224 µM [quencher, side channel, full curve, poor fit]	
Cc1ccc(Cn2c(=O)n(Cc3ccco3)c(=O)c3ccccc32)cc1	inconclusive: 3.55 µM [quencher, side channel, partial curve]	
C/C(=N\NC(=O)c1cc(-c2ccc(C)s2)nc2ccccc12)c1cccnc1	inconclusive: 44.7 µM [quencher, side channel, partial curve, poor fit]	
O=C(Nc1cccc(OCC(=O)N2CCOCC2)c1)c1cccc([N+](=O)[O-])c1	inconclusive: 14.1 µM [quencher, side channel, partial curve]	
CC(C)n1c(SCC(=O)Nc2ccccc2N2CCOCC2)nc2c1c(=O)n(C)c(=O)n2C	inconclusive: 39.8 µM [inhibitor, single point]	
CCOC(=O)CCC(=O)Nc1ccc([N+](=O)[O-])cc1C	inconclusive: 25.1 µM [quencher, side channel, partial curve]	
Cc1ccc(/C=C2/SC(=O)N(CC(=O)N3CCOCC3)C2=O)s1	inconclusive: 1.41 µM [quencher, side channel, full curve, poor fit]	
NS(=O)(=O)c1ccc(N=Nc2ccc(=O)[nH]c2O)cc1	inconclusive: 3.98 µM [quencher, side channel, full curve]	
Cc1nc(SCC(N)=O)c([N+](=O)[O-])[nH]1	inconclusive: 28.2 µM [quencher, side channel, single point]	
CCOC(=O)C1=C(O)/C(=C/c2ccc(-c3ccccc3C(=O)O)o2)SC1=Nc1ccc(OC)cc1	inconclusive: 39.8 µM [quencher, single point]	
Cc1ccc(/C=N\Nc2cn[nH]c(=O)c2Cl)cc1	inconclusive: 20 µM [quencher, side channel, partial curve]	
Cc1ccc(N=Cc2nc(-c3ccco3)oc2O)cc1	inconclusive: 31.6 µM [quencher, side channel, partial curve]	
Clc1ccccc1CSc1nnc(-c2ccco2)c(-c2ccco2)n1	inconclusive: 12.6 µM [quencher, side channel, partial curve]	

Structure (SMILES)	Potency	activity change, negative = inhibition
CC(C)NS(=O)(=O)c1ccc(NCCCn2ccnc2)c([N+](=O)[O-])c1	inconclusive: 28.2 µM [quencher, side channel, partial curve]	
O=c1c2ccccc2nc(/C=C/c2c[nH]c3ccccc23)n1CCO	inconclusive: 25.1 µM [quencher, side channel, single point]	
Cc1oc2c(c1C(=O)N1CCC(C)CC1)C(=O)c1ccccc1C2=O	inconclusive: 11.2 µM [quencher, side channel, partial curve]	
CN(C)c1ccc(/C=C2\CCCCC2=O)cc1	inconclusive: 2.51 µM [quencher, side channel, partial curve, poor fit]	
CC(C)CCNC(=O)c1cn(C)c2ccc(S(=O)(=O)N3CCCC3)cc2c1=O		inactive: 2.88%
COc1cccc(/C=N/n2nnnc2N)c1OCc1ccccc1Cl	inconclusive: 14.1 µM [quencher, side channel, single point]	
O=C(COC(=O)c1cc([N+](=O)[O-])ccc1Cl)NC1CCCC1	inconclusive: 14.1 µM [quencher, side channel, partial curve]	
Cc1cc2c(cc1C)CSC(c1ccccc1O)SC2	inconclusive: 17.8 µM [quencher, side channel, partial curve]	
Cc1cc(C)c2cc(C#N)c(N3CCCC3)nc2c1		inactive: 26.1%
C=CCNC(=O)/C(=C\c1ccc(OC)cc1)NC(=O)c1ccc([N+](=O)[O-])cc1	inconclusive: 17.8 µM [quencher, partial curve]	
COc1cccc(C2C(C(=O)c3cc4ccccc4o3)=C(O)C(=O)N2c2cc(C)on2)c1OC (stereo not given)	inconclusive: 39.8 µM [quencher, side channel, single point]	
CC(=O)N=Cc1c(C)c(C#N)c(=O)n(C)c1O		inactive: -15.1%
CSc1nc2nc(-c3ccccc3)cc(C(F)(F)F)n2n1	inconclusive: 3.55 µM [quencher, side channel, full curve]	
CCOC(=O)CSc1nc2c(cnn2-c2ccc(F)cc2)c(=O)[nH]1		inactive: 0.827%
COc1ccccc1-c1cc2nc(C)c(CCC(=O)NCc3ccc(F)cc3)c(C)n2n1	inconclusive: 39.8 µM [fluorescent, side channel, single point]	
O=C(c1cc2cccc([N+](=O)[O-])c2oc1=O)N1CCOCC1	inconclusive: 15.8 µM [quencher, side channel, partial curve]	
COc1ccc(CCNC(=O)C2CCN(S(=O)(=O)N3CCCCCC3)CC2)cc1OC	inconclusive: 3.55 µM [fluorescent, side channel, single point]	
O=C(/C=C/c1ccc(Br)cc1)NC(=O)c1ccccc1O		inactive: 1.74%
O=C(COC(=O)c1ccccn1)c1ccc([N+](=O)[O-])cc1	inconclusive: 15.8 µM [quencher, partial curve]	
CCOc1cc(CNc2ccc3[nH]c(=O)[nH]c3c2)ccc1OCC(=O)NC(C)(C)C	inconclusive: 25.1 µM [quencher, side channel, partial curve]	

Structure (SMILES)	Potency	activity change, negative = inhibition
O=C(C1=C(O)C(=O)N(c2ncccn2)C1c1cccs1)c1ccco1 (stereo not given)	inconclusive: 31.6 µM [quencher, single point]	
CC(=O)c1ccccc1OCC(O)CN1CCN(CCN2C(=O)c3cccc4cccc(c34)C2=O)CC1 (stereo not given)	inconclusive: 3.55 µM [quencher, full curve]	
O=C(Nc1ccccc1C(=O)N1CCCCCC1)c1cccc([N+](=O)[O-])c1	inconclusive: 7.94 µM [quencher, side channel, partial curve]	
Cc1cnc(CN(C)C(=O)c2ccc3oc(Cc4ccccc4)nc3c2)[nH]1		inactive: -4.65%
COc1cccc(NC(=O)CSc2nc3c(c(-c4ccco4)c2C#N)CCCC3)c1		inactive: -11.5%
Cc1cc(OCc2ccc(C(=O)NN=C3CCCC3)cc2)ccc1Cl		inactive: -6.66%
CCn1ccc2cc(OC)ccc2c1=S	inconclusive: 39.8 µM [quencher, side channel, single point]	
COc1cc(OC)cc(C(=O)Nc2ccc(N3CCN(C(=O)c4cccs4)CC3)cc2)c1		inactive: -6.24%
COc1cc(NS(=O)(=O)c2c(C)oc3c(F)c(F)c(F)c(F)c23)cc(OC)c1OC		inactive: -1.89%
CCOC(=O)CNc1c(-c2ccc(Cl)cc2)nc2cnccn12		inconclusive: 57.6% [activator]
O=C(NN1C(=O)/C(=C/c2cccs2)SC1=S)c1cccnc1	inconclusive: 28.2 µM [quencher, side channel, single point]	
CC1OC(OCC2OC(Oc3c(-c4ccc(O)cc4)oc4cc(O)cc(O)c4c3=O)C(O)C(O)C2O)C(O)C(O)C1O (stereo not given)	inconclusive: 14.1 µM [quencher, side channel, partial curve]	
COC(=O)c1c[nH]c(=O)c2ccccc12		inactive: 13.8%
CC12CCC(C(=O)N(NC(=O)c3ccccc3O)C1=O)C2(C)C (stereo not given)	inconclusive: 2.82 µM [fluorescent, side channel, full curve, poor fit]	
Cc1cccc(NC(=O)CCS(=O)(=O)c2cccc3nsnc23)c1C	inconclusive: 11.2 µM [quencher, side channel, partial curve]	
O=C(O)CCc1ccc(-c2ccccc2)n1CC(=O)O		inactive: 10.3%
CCOC(=O)c1c(C)n(C)c2ccc(OC(=O)c3ccc([N+](=O)[O-])cc3)cc12	inconclusive: 0.1 µM [fluorescent, side channel, full curve]	
CN(C)c1ccc(O)c2c1CC1CC3[C@@H](N(C)C)C(=O)C(C(N)=O)=C(O)[C@]3(O)C(=O)C1=C2O (stereo not given in full)	inconclusive: 15.8 µM [quencher, side channel, partial curve]	
CCOC(=O)CN1C=C(c2ccc3ccccc3n2)C(C[N+](=O)[O-])c2ccccc21 (stereo not given)	inconclusive: 15.8 µM [quencher, side channel, partial curve]	
O=C(O)c1cc2ncc(-c3[nH]ncc3[N+](=O)[O-])cn2n1	inconclusive: 31.6 µM [quencher, side channel, single point]	
